In PubChem BioAssay (NCATS):
This list was built around the results that the source calls inconclusive (neither active nor inactive); the mix of calls is not that of the screen. For part of these data: A potency beside an inconclusive call is a rough fit, not a confirmed value. The source made the active and inactive calls. Unless noted, calls follow the shape of the dose curve; as a rule, active = well fitted curve in the direction sought with a large enough effect; inconclusive = small, poorly fitted or top-dose-only effect, or another doubt; inactive = no such curve, though single readings can be large; an effect the other way counts as inactive or inconclusive.

Key:
[1] = Primary qHTS for inhibitors of nuclear receptor binding SET domain protein 2 (NSD2) in an isogenic RCH-ACV NSD2 p.E1099K mutant (9B) (AID 1645876); details: activity change, negative = viability loss: at 44.9 µM (top of the series) unless noted; also: nearly all actives have a fitted effect of over 70% in size
[2] = target: Phospholipid hydroperoxide glutathione peroxidase GPX4 (Homo sapiens) (UniProt P36969); test: Primary qHTS Assay for Inhibitors of Recombinant Selenoprotein Glutathione Peroxidase 4 (GPX4) (AID 1845192); details: activity change, negative = inhibition: at 50 µM (top of the series) unless noted; also: nearly all actives have a fitted effect of over 65% in size
Summary of the method: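 GR-coupled assay: recombinant GPX4 preincubated 30 min with compound at room temperature; final 200 nM GPX4, 1 mM GSH, 0.5 mM cumene hydroperoxide, 0.5 mM NADPH, 100 nM GR, 0.01% BSA, pH 7.5 Tris. NADPH fluorescence (340/450 nm) read at 0 and 15 min.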

[3] = Primary fluorescence-based thiol-reactive (MSTI) qHTS assay for identification of artifact compounds. (AID 1845221);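 also: potency is read from the fitted curve at half-maximal effect; thiol-reactive compounds lower the probe fluorescence signal; nearly all actives have a fitted effect of over 65% in size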
Summary of the method: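 Curve-fitted percent inhibition (4-parameter Hill) derived from fluorescence, Ex 525/Em 598 nm, scaled with Acetyl-MSTI and MSTI; 1 h incubation at room temperature.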

Hek293T = test: Primary qHTS to identify gynecologic anti-cancer compounds using libraries of approved drugs and bioactive compounds (AID 1345084); details: Gynecologic cancer cell panel viability, ATPlite luminescence, 48 h, control line for the selectivity index; series mostly up to 57.5 µM; also: nearly all actives have a fitted effect of over 55% in size; also: potency is read from the fitted curve at half-maximal effect
Summary of the method: (§1)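 Cytotoxicity screen measuring ATP content by luciferase luminescence. Each compound is applied at five concentrations for 48 h at 37 C with 5% CO2.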

JEG-3 = test: as above; details: Gynecologic cancer cell panel viability, ATPlite luminescence, 48 h; series mostly up to 57.5 µM
Summary of the method: as §1

[4] = target: Glutathione peroxidase 1 (Homo sapiens) (UniProt P07203); test: Primary qHTS Assay for Inhibitors of Recombinant Selenoprotein Glutathione Peroxidase 1 (GPX1) (AID 1845191); also: nearly all actives have a fitted effect of over 65% in size
Summary of the method: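 GR-coupled assay: compounds preincubated 30 min at room temperature with GPX1, then reaction started with CHP; final 10 nM GPX1, 1 mM GSH, 0.5 mM CHP, 0.5 mM NADPH, 100 nM GR, 0.01% BSA, pH 7.5 Tris buffer. NADPH fluorescence (340/450 nm) read at 0 and 15 min.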

[5] = target: Luciferin 4-monooxygenase (Photinus pyralis) (UniProt P08659); test: Primary firefly luciferase (FLuc) qHTS assay for identification of artifact compounds. (AID 1845220); also: potency is read from the fitted curve at half-maximal effect; nearly all actives have a fitted effect of over 60% in size
Summary of the method: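 Titrated compounds were incubated 15 min at RT, protected from light, with luciferin and ATP at 10 uM; reaction started with 10 nM FLuc, luminescence imaged at 5 min, and concentration-response fitted by Hill equation.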

OV90 = test: Primary qHTS to identify gynecologic anti-cancer compounds using libraries of approved drugs and bioactive compounds (AID 1345084); details: Gynecologic cancer cell panel viability, ATPlite luminescence, 48 h; series mostly up to 57.5 µM; also: nearly all actives have a fitted effect of over 55% in size; also: potency is read from the fitted curve at half-maximal effect
Summary of the method: as §1

SKOV3 = test: as above; details: Gynecologic cancer cell panel viability, ATPlite luminescence, 48 h; series mostly up to 57.5 µM
Summary of the method: as §1

Tov-21-G = test: as above; details: Gynecologic cancer cell panel viability, ATPlite luminescence, 48 h; series mostly up to 57.5 µM
Summary of the method: as §1

[6] = target: Ubiquitin carboxyl-terminal hydrolase 1 (Homo sapiens) (UniProt O94782); test: Inhibitors of USP1/UAF1: Pilot qHTS (AID 504865);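 also: rhodamine fluorescence freed from ubiquitin-rhodamine substrate followed over time; potency is read from the fitted curve at half-maximal effect; nearly all actives have a fitted effect of over 35% in size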
Summary of the method: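 1nM USP1/UAF1 + cpd, 15 min RT; start w/ Ub-Rho 150nM final; kinetic FL 480/540 nm, 6 reads q60 s. Buffer 50mM HEPES pH 7.8, 0.5mM EDTA, 1mM TCEP, 0.01% Tween-20, 0.1 mg/ml BSA.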

[7] = target: Voltage-gated inwardly rectifying potassium channel KCNH2 (Homo sapiens) (UniProt Q12809); test: qHTS Assay for Small Molecule Inhibitors of the Human hERG Channel Activity (AID 588834);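 also: potency is read from the fitted curve at half-maximal effect; lower thallium flux fluorescence means stronger hERG block; nearly all actives have a fitted effect of over 50% in size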
Summary of the method: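 Concentration-response qHTS measuring drop in thallium-sensitive dye signal. U2OS cells carrying BacMam hERG; compound exposure ~10 min, then stimulation buffer and 2 min read at 1 sec intervals.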

[8] = target: Luciferin 4-monooxygenase (Photinus pyralis) (UniProt P08659); test: Biochemical firefly luciferase enzyme assay for NPC (AID 624030); also: potency is read from the fitted curve at half-maximal effect; nearly all actives have a fitted effect of over 70% in size
Summary of the method: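 Purified P. pyralis luciferase at 10 nM in 50 mM Tris Acetate (final), luminescence read within 5 minutes of enzyme addition to compounds. Activity normalised to PTC124 versus DMSO; concentration-response curves classed by r2, magnitude and activity.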

[9] = NS1 protein of Zika virus - qHTS assay to identify small molecule inhibitors in human HEK 293 cells (AID 1347053); also: nearly all actives have a fitted effect of over 55% in size
Summary of the method: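 HEK 293 cells pretreated with compound for 1 h, then infected with ZIKV MR766 (MOI 0.5) for 24 h at 37 C. NS1 detected by TR-FRET with two anti-NS1 antibodies; normalized to uninfected (0%) and infected (100%) wells.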

[10] = qHTS of pediatric cancer cell lines to identify multiple opportunities for drug repurposing: Primary screen for TC32 cells (AID 1347089); also: nearly all actives have a fitted effect of over 60% in size
Summary of the method: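 In the primary qHTS, MIPE compounds were tested at 11 concentrations (0.78 nM to 46 µM) and NPC compounds at 8 (0.59 nM to 46 µM) on TC32 cells for 48 h. CellTiter-Glo luminescence gave viability.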

[11] = qHTS of pediatric cancer cell lines to identify multiple opportunities for drug repurposing: Primary screen for DAOY cells (AID 1347090); also: nearly all actives have a fitted effect of over 55% in size
Summary of the method: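 Viability measured as metabolically active cells via CellTiter-Glo luminescence following 48 hours of compound exposure, 11-point dilutions in confirmatory testing. 500-1,000 cells/well plated 5 hours before dosing; controls were DMSO and 2.3 µM bortezomib.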

[12] = qHTS to identify inhibitors of the type 1 interferon - major histocompatibility complex class I in skeletal muscle: primary screen against the NCATS Pharmaceutical Collection (AID 1347407);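 also: luminescence of HiBiT knocked into endogenous HLA-B as interferon-induced MHC class I level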
Summary of the method: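 HLA-B HiBiT myoblasts, dexamethasone-free growth medium + 4 ng/ml IFN-b; compounds pinned 1 h after seeding, […] from 46 uM; 24 h, 37 C, 5% CO2; lytic HiBiT detection, 10 min RT, luminescence.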

[13] = Primary qHTS for small molecule stabilizers of the endoplasmic reticulum resident proteome: Secreted ER Calcium Modulated Protein (SERCaMP) assay (AID 1508630); details: SH-SY5Y GLuc-SERCaMP (Gaussia luciferase released on ER calcium loss) secretion, thapsigargin, luminescence; activity change, negative = inhibition: at 38.4 µM (top of the series) unless noted; also: potency is read from the fitted curve at half-maximal effect
Summary of the method: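 GLuc-SERCaMP-expressing SH-SY5Y cells, pretreated 16 h with compound, are challenged with thapsigargin to empty ER calcium stores; after 4 h, coelenterazine is added directly to the medium and luminescence is imaged.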

[14] = A High-Content qHTS Against Drug Library for the Identification of Small Molecules that Inhibit DYT1 Early Onset Primary Dystonia-Associated Cell Pathology (AID 1645839; calls by dose curve)
Summary of the method: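 Flp-In T-REx 293 cells with tetracycline-inducible EGFP-delE hTOR1A (WT EGFP-hTOR1A as reference), 800 cells/well; compound added with tetracycline, 48 h at 37 C. Fixed, permeabilized cells imaged; %pathology (punctate TorsinA) primary, cell count counterscreen.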

[15] = target: Cytochrome P450 2D6 (Homo sapiens) (UniProt P10635); test: Cytochrome P450 family 2 subfamily D member 6 (CYP2D6) small molecule antagonists: luciferase biochemical (cell-free) qHTS assay (AID 1645840; active = well fitted curve in the direction sought with a large enough effect in the repeat runs; inconclusive = weak or mixed curves; inactive = no such curve, though single readings can be large; an effect the other way counts as inactive or inconclusive; also: nearly all actives have a fitted effect of over 55% in size)
Summary of the method: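 P450-Glo luminescent screen: recombinant CYP2D6 enzyme–proluciferin substrate mix preincubated with compound 10 min at room temperature, then NADPH regeneration added for 1 h at room temperature. Detection reagent added for 20 min; luciferin light read as relative luminescence units.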

C2A = test: qHTS profiling for inhibitors of Plasmodium falciparum proliferation (AID 504749); also: nearly all actives have a fitted effect of over 60% in size; also: potency is read from the fitted curve at half-maximal effect; details: P. falciparum in erythrocytes, SYBR Green DNA, 72 h; series mostly up to 28.7 µM
Summary of the method: (§2)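 P. falciparum-infected erythrocytes (0.3% parasitemia, 2.5% hematocrit) incubated with compound 72 h at 37 C, 5% CO2. Parasite DNA detected by SYBR Green after lysis, overnight at room temperature; normalised to 0.29 uM artemisinin and DMSO.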

CP201 = test: as above; details: P. falciparum in erythrocytes, SYBR Green DNA, 72 h; series mostly up to 28.7 µM
Summary of the method: as §2

CP247 = test: as above; details: P. falciparum in erythrocytes, SYBR Green DNA, 72 h; series mostly up to 28.7 µM
Summary of the method: as §2

CP256 = test: as above; details: P. falciparum in erythrocytes, SYBR Green DNA, 72 h; series mostly up to 28.7 µM
Summary of the method: as §2

CP260 = test: as above; details: P. falciparum in erythrocytes, SYBR Green DNA, 72 h; series mostly up to 28.7 µM
Summary of the method: as §2

CP265 = test: as above; details: P. falciparum in erythrocytes, SYBR Green DNA, 72 h; series mostly up to 28.7 µM
Summary of the method: as §2

CP305 = test: as above; details: P. falciparum in erythrocytes, SYBR Green DNA, 72 h; series mostly up to 28.7 µM
Summary of the method: as §2

DIV17 = test: as above; details: P. falciparum in erythrocytes, SYBR Green DNA, 72 h; series mostly up to 28.7 µM
Summary of the method: as §2

ICS = test: as above; details: P. falciparum in erythrocytes, SYBR Green DNA, 72 h; series mostly up to 28.7 µM
Summary of the method: as §2

N140 = test: as above; details: P. falciparum in erythrocytes, SYBR Green DNA, 72 h; series mostly up to 28.7 µM
Summary of the method: as §2

P94_40 = test: as above; details: P. falciparum in erythrocytes, SYBR Green DNA, 72 h; series mostly up to 28.7 µM
Summary of the method: as §2

TAB109 = test: as above; details: P. falciparum in erythrocytes, SYBR Green DNA, 72 h; series mostly up to 28.7 µM
Summary of the method: as §2

[16] = P-glycoprotein substrates identified in KB-8-5-11 adenocarcinoma cell line, qHTS therapeutic library screen (AID 1346987); details: activity change, negative = cytotoxicity: at 44.5 µM (top of the series); also: nearly all actives have a fitted effect of over 65% in size
Summary of the method: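 KB-8-5-11, a colchicine-selected P-gp-overexpressing KB-3-1 subline, was grown without colchicine for the assay. Cells were seeded at 500 cells/well, dosed in concentration-response and incubated 72 h at 37 degree C, 5% CO2. Viability was read by CellTiter-Glo luminescence.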

[17] = test system: Zika virus NS2B-NS3 protease (linked construct); test: Primary screen NINDS Rhodamine qHTS for Zika virus inhibitors (AID 1347160); also: nearly all actives have a fitted effect of over 55% in size
Summary of the method: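 Purified NS2B-NS3 protease with the NS2B hydrophilic domain joined by a flexible linker (25 nM) in 10 mM Tris-HCl pH 8.0, 0.01% Tween 20, preincubated 15 min at RT with compound; Rhodamine110 peptide substrate 1.5 µM; fluorescence change over 15 min; 4-parameter Hill fit.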

HeLa = test: Primary qHTS to identify gynecologic anti-cancer compounds using libraries of approved drugs and bioactive compounds (AID 1345084); details: Gynecologic cancer cell panel viability, ATPlite luminescence, 48 h; series mostly up to 57.5 µM; also: nearly all actives have a fitted effect of over 55% in size; also: potency is read from the fitted curve at half-maximal effect
Summary of the method: as §1

Tov112D = test: as above; details: Gynecologic cancer cell panel viability, ATPlite luminescence, 48 h; series mostly up to 57.5 µM
Summary of the method: as §1

Measured: Potency
Tags tell the direction and shape of the fitted curve.

UniProt P08659, sequence (P08659 whole entry, looked up): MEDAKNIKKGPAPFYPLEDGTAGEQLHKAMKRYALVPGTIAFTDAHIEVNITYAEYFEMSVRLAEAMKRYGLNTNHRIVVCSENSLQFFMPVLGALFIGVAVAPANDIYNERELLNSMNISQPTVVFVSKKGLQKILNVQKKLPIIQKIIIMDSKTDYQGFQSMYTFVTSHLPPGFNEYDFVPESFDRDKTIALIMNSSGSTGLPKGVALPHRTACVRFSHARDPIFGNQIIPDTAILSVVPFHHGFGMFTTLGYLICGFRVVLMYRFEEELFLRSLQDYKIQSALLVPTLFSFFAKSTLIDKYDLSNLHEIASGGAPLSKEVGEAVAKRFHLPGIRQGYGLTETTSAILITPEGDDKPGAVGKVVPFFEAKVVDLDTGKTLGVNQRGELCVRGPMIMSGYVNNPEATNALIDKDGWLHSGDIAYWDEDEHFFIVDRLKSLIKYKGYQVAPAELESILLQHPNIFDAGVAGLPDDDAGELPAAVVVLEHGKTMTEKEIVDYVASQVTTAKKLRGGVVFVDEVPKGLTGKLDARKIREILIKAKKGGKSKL
UniProt O94782, sequence (O94782 whole entry, looked up): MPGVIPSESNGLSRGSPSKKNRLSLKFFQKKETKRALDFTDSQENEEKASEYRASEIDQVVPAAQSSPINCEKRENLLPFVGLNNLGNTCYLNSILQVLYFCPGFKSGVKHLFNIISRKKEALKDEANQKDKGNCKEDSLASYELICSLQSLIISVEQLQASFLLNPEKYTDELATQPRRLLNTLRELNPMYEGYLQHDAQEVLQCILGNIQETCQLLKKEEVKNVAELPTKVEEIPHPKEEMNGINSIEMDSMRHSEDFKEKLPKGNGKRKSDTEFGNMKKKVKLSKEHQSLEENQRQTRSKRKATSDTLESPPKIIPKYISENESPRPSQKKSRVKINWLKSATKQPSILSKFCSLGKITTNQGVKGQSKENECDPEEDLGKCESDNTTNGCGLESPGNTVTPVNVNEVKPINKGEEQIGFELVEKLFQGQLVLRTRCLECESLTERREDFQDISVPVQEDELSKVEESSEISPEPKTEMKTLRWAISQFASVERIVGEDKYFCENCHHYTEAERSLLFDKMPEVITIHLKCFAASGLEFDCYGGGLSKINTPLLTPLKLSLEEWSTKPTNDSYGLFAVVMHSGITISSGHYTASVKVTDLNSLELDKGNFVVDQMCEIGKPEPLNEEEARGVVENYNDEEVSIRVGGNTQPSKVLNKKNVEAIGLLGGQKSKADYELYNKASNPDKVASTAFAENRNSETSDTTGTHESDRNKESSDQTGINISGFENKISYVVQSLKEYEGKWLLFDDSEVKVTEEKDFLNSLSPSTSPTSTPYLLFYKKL
UniProt P10635, sequence (P10635 whole entry, looked up): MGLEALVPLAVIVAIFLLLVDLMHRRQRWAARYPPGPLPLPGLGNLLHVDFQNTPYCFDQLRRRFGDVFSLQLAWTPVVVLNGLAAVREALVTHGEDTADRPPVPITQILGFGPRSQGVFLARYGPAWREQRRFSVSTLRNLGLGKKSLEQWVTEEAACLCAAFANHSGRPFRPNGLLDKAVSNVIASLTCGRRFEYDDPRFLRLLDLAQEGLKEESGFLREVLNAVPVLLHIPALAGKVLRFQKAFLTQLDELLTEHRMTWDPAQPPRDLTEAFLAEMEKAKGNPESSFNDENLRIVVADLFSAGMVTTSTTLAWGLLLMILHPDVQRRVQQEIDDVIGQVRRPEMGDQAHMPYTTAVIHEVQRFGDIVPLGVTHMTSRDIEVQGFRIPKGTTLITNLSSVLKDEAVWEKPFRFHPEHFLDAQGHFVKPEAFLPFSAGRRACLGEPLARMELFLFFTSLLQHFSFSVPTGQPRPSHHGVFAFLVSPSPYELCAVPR
UniProt P36969, sequence (P36969 whole entry, looked up): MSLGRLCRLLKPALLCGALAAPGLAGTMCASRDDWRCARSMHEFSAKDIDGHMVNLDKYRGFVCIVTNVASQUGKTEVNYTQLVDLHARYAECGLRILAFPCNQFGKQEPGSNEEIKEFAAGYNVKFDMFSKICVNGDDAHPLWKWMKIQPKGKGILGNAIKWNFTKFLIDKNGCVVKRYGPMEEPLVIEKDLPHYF
UniProt Q12809, sequence (Q12809 whole entry, looked up): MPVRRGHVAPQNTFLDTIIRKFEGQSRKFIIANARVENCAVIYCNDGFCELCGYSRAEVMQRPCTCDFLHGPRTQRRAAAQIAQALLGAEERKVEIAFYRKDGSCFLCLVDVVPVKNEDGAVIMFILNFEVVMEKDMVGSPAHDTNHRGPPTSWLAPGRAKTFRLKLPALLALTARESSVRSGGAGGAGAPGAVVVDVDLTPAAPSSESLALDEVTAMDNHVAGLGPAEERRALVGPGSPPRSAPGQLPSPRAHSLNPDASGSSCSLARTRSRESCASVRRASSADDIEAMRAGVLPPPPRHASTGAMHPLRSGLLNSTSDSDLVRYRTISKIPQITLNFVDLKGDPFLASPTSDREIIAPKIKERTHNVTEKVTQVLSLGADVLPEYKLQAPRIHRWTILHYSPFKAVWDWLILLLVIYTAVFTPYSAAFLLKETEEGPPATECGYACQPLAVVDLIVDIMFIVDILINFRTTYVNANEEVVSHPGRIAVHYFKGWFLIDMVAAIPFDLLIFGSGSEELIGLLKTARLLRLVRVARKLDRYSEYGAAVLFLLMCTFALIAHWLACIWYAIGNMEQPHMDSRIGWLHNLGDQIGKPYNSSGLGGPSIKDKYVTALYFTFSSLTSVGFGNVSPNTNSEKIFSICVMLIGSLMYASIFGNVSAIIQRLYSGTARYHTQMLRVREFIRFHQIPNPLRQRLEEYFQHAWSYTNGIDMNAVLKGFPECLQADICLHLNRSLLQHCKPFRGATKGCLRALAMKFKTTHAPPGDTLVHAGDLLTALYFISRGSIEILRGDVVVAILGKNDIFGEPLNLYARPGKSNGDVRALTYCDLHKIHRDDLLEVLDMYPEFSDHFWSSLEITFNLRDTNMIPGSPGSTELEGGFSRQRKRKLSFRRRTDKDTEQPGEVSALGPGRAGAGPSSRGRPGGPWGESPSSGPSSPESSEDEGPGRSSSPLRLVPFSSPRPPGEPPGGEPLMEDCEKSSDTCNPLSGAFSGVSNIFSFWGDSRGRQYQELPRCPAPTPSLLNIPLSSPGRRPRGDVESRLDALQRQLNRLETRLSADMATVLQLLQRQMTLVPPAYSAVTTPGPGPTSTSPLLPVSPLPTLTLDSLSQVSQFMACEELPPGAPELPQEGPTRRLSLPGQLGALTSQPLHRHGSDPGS
UniProt P07203, sequence (P07203 whole entry, looked up): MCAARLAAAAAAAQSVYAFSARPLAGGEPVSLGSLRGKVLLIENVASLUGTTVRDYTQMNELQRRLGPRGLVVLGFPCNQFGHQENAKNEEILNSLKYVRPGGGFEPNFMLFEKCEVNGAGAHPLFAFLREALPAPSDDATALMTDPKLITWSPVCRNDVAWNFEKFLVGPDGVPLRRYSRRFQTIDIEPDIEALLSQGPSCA

CC1(C)C2CCC1(C)C(OC(=O)C(O)(CC(=O)O)CC(=O)O)C2 (centres undefined)
inactive: [1] | [2] | JEG-3
inconclusive: [3] 7.36 µM [inhibitor, partial curve] | Hek293T 10 µM [rising, single point]

c1ccc2c(Nc3nnc(-c4ccncc4)s3)cccc2c1
inconclusive: Hek293T 20 µM [cytotoxic, partial curve] | OV90 = 28.2 µM [cytotoxic, partial curve, poor fit] | SKOV3 = 35.5 µM [cytotoxic, single point] | Tov-21-G 28.2 µM [cytotoxic, single point]
active: [5] 7.57 µM
inactive: [4]

CC(C)CCOC(=O)c1ccc(N(C)C)cc1
inconclusive: [6] 56.2 µM [inhibitor, partial curve, poor fit] | [7] 35.5 µM [inhibitor, single point] | [13] 2.24 µM [inhibitor, full curve, poor fit] | N140 = 12.6 µM [activator, partial curve, poor fit]
active: [8] 6.42 µM
not listed: [1] | [2] | [3] | JEG-3 | [4] | [5] | SKOV3 | Tov-21-G | [16] | [17] | HeLa | Tov112D
inactive: all other assays above

O=C(O)c1ccc(NC(=O)[C@H](CC2CCCC2)n2cnc(C(F)(F)F)c2)nc1
inactive: [16] | [17] | Tov112D
inconclusive: HeLa 39.8 µM
